In the supplement of paper PMC9446081 one finds relative growth data, which are given here for 61 compounds.

Screen size: about 39,000 compounds; about 220 (0.56%) showed activity. The list shows a part of the results.
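Also: static incubation at 37 °C against the wild-type strain, values averaged over two biological replicates.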

The subject of this experiment is Escherichia coli K-12 BW25113. Briefly: relative growth (OD600 normalised to plate interquartile mean) (fraction); higher = less growth inhibition, active = 0.2 or less. To be noted: 50 µM; LB; incubation time: overnight (16-24 h).
As to `C[C@@H]1CCCCO[C@@H](CN(C)CC2CCCCC2)[C@H](C)CN([C@H](C)CO)C(=O)c2cc(NC(=O)c3ccncc3)ccc2O1`, the relative growth is inactive: 1.01.
The value for `CC(C)NC(=O)[C@@H]1c2ccccc2C(=O)N(Cc2cc(C(F)(F)F)cc(C(F)(F)F)c2)[C@H]1c1ccc(CO)cc1` was inactive: 0.954; that for `Cc1ccc(S(=O)(=O)Nc2ccc3c(c2)CC(=O)N([C@H](C)CO)C[C@H](C)[C@@H](CN(C)C(=O)NC(C)C)O3)cc1` was inactive: 1.01; that for `COc1ccccc1[C@@H](NC(=O)C1CCN(Cc2ccc(Oc3ccccc3)cc2)CC1)c1ccccn1` was inactive: 1.
The value for `CC(=O)OC1CC2CC(OC(C)=O)C3(C)C(CCC4(C)C(c5ccoc5)OC(OC(C)=O)C5OC543)C2(C)C(OC(C)=O)C1` (stereo unspecified) was inactive: 1.09; that for `C[C@@H]1CN([C@H](C)CO)C(=O)c2cc(NC(=O)Nc3ccc(F)cc3)ccc2O[C@@H](C)CCCCO[C@@H]1CN(C)C(=O)NC1CCCCC1` was inactive: 1.01; that for `C[C@@H]1CCCCO[C@H](CN(C)C(=O)c2ccccc2)[C@H](C)CN([C@@H](C)CO)C(=O)c2cc(NS(=O)(=O)c3ccc(Cl)cc3)ccc2O1` was inactive: 1.
The value for `COc1ccc(NC(=O)Nc2ccc3c(c2)C(=O)N([C@@H](C)CO)C[C@H](C)[C@H](CN(C)Cc2ccncc2)OCCCC[C@H](C)O3)cc1` was inactive: 0.997; that for `C[C@@H]1CN([C@@H](C)CO)C(=O)Cc2cc(NC(=O)CCN3CCOCC3)ccc2O[C@@H]1CN(C)S(=O)(=O)c1ccccc1` was inactive: 1.01; that for `C[C@@H]1CN([C@H](C)CO)C(=O)c2cccc(NS(=O)(=O)c3cccs3)c2O[C@@H]1CN(C)CC1CC1` was inactive: 1.
As for `C[C@@H]1CCCCO[C@@H](CN(C)Cc2ccncc2)[C@@H](C)CN([C@@H](C)CO)C(=O)c2cc(NC(=O)CCC(F)(F)F)ccc2O1`, the relative growth was inactive: 1.01.
The value for `CN1C(=N)NC(=O)/C1=C/c1cccnc1` was inactive: 1.01; that for `Clc1ccc2nncn2n1` was inactive: 1.02.
Consider `CC(C)CC#Cc1cnc2c(c1)C(=O)N([C@@H](C)CO)C[C@H](C)[C@@H](CN(C)C(=O)CN1CCOCC1)O2`, for which the relative growth was inactive: 0.975.
`NC(=O)C1(N2CCCCC2)CCN(CCCC(=O)c2ccc(F)cc2)CC1`: the relative growth is inactive: 1.11.
Take `Cc1ccc(S(=O)(=O)N(C)C[C@@H]2OCCCC[C@@H](C)Oc3ccc(NC(=O)Nc4ccc5c(c4)OCO5)cc3C(=O)N([C@H](C)CO)C[C@H]2C)cc1`: the relative growth was inactive: 1.01.
As to `COc1ccc(S(=O)(=O)Nc2ccc3c(c2)C(=O)N([C@H](C)CO)C[C@H](C)[C@@H](CN(C)Cc2ccc(Cl)c(Cl)c2)O3)cc1`, the relative growth was inactive: 1.02.
In the case of `COc1c(O[C@@H]2O[C@H](CO)[C@@H](O)[C@H](O)[C@H]2O)cc2oc(-c3ccc(O)c(O)c3)c(O)c(=O)c2c1O`, the relative growth is inactive: 0.999.
For `COc1ccc(S(=O)(=O)Nc2cccc3c2O[C@@H](CN(C)S(C)(=O)=O)[C@@H](C)CN([C@H](C)CO)C3=O)cc1`, the relative growth was inactive: 0.892.
The value for `COc1ccc(NC(=O)N(C)C[C@@H]2Oc3c(NC(=O)C4CCOCC4)cccc3C(=O)N([C@@H](C)CO)C[C@@H]2C)cc1` was inactive: 0.981; that for `O=C1CN(S(=O)(=O)Cc2ccccc2)C[C@@H]2[C@@H](c3ccc(C#Cc4cccc(F)c4)cc3)[C@H](CO)N12` was inactive: 0.998.
Consider `COc1ccc(S(=O)(=O)N[C@H]2C=C[C@@H](CC(=O)N3CCC(Cc4ccccc4)CC3)O[C@@H]2CO)cc1`, for which the relative growth is inactive: 1.
`C[C@@H]1CCCCO[C@H](CN(C)C(=O)Nc2cccc3ccccc23)[C@@H](C)CN([C@H](C)CO)C(=O)c2cc(NC(=O)CCCCCC(=O)Nc3ccccc3N)ccc2O1`: the relative growth was inactive: 1.01.
The value for `CCc1nc2ccc(C(=O)Nc3cc(-c4ccccc4)ccc3OC)cn2c1N(C)C(=O)c1cccc(OC)c1` was inactive: 1.04; that for `C[C@@H]1CN([C@H](C)CO)C(=O)Cc2cc(NC(=O)C3CCCCC3)ccc2O[C@H]1CN(C)C(=O)Nc1ccc(C(F)(F)F)cc1` was inactive: 0.974.
As to `C[C@@H]1CCCCO[C@@H](CN(C)C(=O)Nc2ccc3c(c2)OCO3)[C@@H](C)CN([C@H](C)CO)C(=O)c2cc(NS(=O)(=O)c3cccs3)ccc2O1`, the relative growth is inactive: 0.99.
The value for `CCCCCN(C)CCC(O)(P(=O)([O-])O)P(=O)(O)O.O.[Na+]` was inactive: 0.941.
The value for `C[C@@H]1CN([C@@H](C)CO)C(=O)c2cc(NC(=O)Nc3ccc4c(c3)OCO4)ccc2O[C@@H](C)CCCCO[C@H]1CN(C)Cc1ccc(C(=O)O)cc1` was inactive: 0.997; that for `C[C@H](CO)N1C[C@H](C)[C@H](CN(C)S(=O)(=O)c2cn(C)cn2)Oc2ccc(NC(=O)CCC(F)(F)F)cc2C1=O` was inactive: 0.997; that for `N=C(N)NCCN1CCCCCCC1` was inactive: 1.01.
On to `CCCNC(=O)N(C)C[C@H]1Oc2cc(-c3ccc(C)cc3)ccc2S(=O)(=O)N([C@H](C)CO)C[C@@H]1C`, for which the relative growth was inactive: 0.993.
`C[C@@H]1CN([C@@H](C)CO)C(=O)c2cc(NC(=O)Nc3ccccc3)ccc2O[C@@H]1CN(C)Cc1ccc(C(=O)Nc2ccccc2N)cc1`: the relative growth is inactive: 0.974.
The value for `Cl.Cl.NCCc1c[nH]cn1` was inactive: 1.19; that for `CC(=O)Nc1c(C)[nH]c2ncnn2c1=O` was inactive: 1.
The value for `Cc1cc(C(=O)Nc2cccc3c2O[C@H](CN(C)Cc2ccc(C(=O)O)cc2)[C@H](C)CN([C@H](C)CO)C3=O)n(C)n1` was inactive: 1.
The value for `Nc1nnc(C(=O)N2CCCCC2)[nH]1` was inactive: 0.981; that for `COc1ccc(-c2nc(N3CCOCC3)c3sc(CN(C)c4ncc(C(=O)NO)cn4)cc3n2)cn1` was inactive: 0.784; that for `C[C@@H]1CN([C@H](C)CO)C(=O)c2cccc(NC(=O)Nc3ccc4c(c3)OCO4)c2O[C@H]1CN(C)S(C)(=O)=O` was inactive: 1.01.
With `Cc1noc(C)c1NC(=O)Nc1ccc2c(c1)CC(=O)N([C@@H](C)CO)C[C@H](C)[C@H](CN(C)S(=O)(=O)c1cn(C)cn1)O2`, the relative growth was inactive: 1.01.
The value for `O=C(C[C@@H]1C[C@H]2c3cc(NC(=O)Nc4ccc(C(F)(F)F)cc4)ccc3O[C@H]2[C@H](CO)O1)NCCc1ccccc1` was inactive: 1.03.
With `C[C@H](CO)N1C[C@H](C)[C@@H](CN(C)S(=O)(=O)c2ccc(F)cc2)Oc2ncc(-c3ccncc3)cc2C1=O`, the relative growth was inactive: 1.01.
The value for `C[C@@H]1CN([C@@H](C)CO)C(=O)Cc2cc(NC(=O)Cn3cnnn3)ccc2O[C@H]1CN(C)C(=O)Nc1ccc2c(c1)OCO2` was inactive: 0.999.
The value for `C[C@@H]1CN([C@H](C)CO)S(=O)(=O)c2ccc(-c3cncnc3)cc2O[C@@H]1CN(C)C(=O)Cc1cccnc1` was inactive: 0.987; that for `CC(C)NC(=O)Nc1ccc2c(c1)CC(=O)N([C@H](C)CO)C[C@@H](C)[C@H](CN(C)Cc1ccc(-c3ccccc3)cc1)O2` was inactive: 1.01.
The value for `O=C(Nc1nccs1)[C@H]1[C@H](CO)[C@H]2Cn3c(cccc3=O)[C@H]2N1C(=O)C1CC1` was inactive: 1.01.
As for `Cc1ccc(S(=O)(=O)N(C)C[C@H]2Oc3ccc(NC(=O)c4ccncc4)cc3C(=O)N([C@@H](C)CO)C[C@H]2C)cc1`, the relative growth was inactive: 0.992.
The value for `C[C@@H]1CN([C@@H](C)CO)C(=O)CCCn2nncc2CO[C@H]1CN(C)Cc1cccc2c1OCCCO2` was inactive: 0.999; that for `COc1ccc(C#Cc2ccc3c(c2)[C@]2(C(=O)N3)[C@H](c3ccccc3OCCO)N3[C@H](c4ccccc4)[C@H](c4ccccc4)OC(=O)[C@H]3[C@@H]2C(=O)NC[C@H](O)c2ccccc2)cc1` was inactive: 1.07.
On to `C[C@@H]1CN([C@@H](C)CO)C(=O)Cc2cc(NC(=O)Nc3ccc(C(F)(F)F)cc3)ccc2O[C@@H]1CN(C)C(=O)Nc1cccc2ccccc12`, for which the relative growth is inactive: 0.998.
The value for `C[C@@H]1CN([C@H](C)CO)C(=O)c2cc(NC(=O)Nc3ccc(C(F)(F)F)cc3)ccc2O[C@H]1CN(C)Cc1ccc(Oc2ccccc2)cc1` was inactive: 1; that for `N#Cc1ccc(Oc2ccccn2)cc1` was inactive: 1.02; that for `C[C@@H]1CN([C@@H](C)CO)C(=O)c2cc(C3=CCCC3)cnc2O[C@@H]1CN(C)C(=O)c1ccc2c(c1)OCO2` was inactive: 1.04.
Take `Cc1noc(C)c1S(=O)(=O)Nc1ccc2c(c1)CC(=O)N([C@H](C)CO)C[C@H](C)[C@H](CN(C)S(=O)(=O)c1ccccc1)O2`: the relative growth is inactive: 1.01.
The value for `NC(=S)Nc1nc2ccccc2[nH]c1=O` was inactive: 0.968.
The value for `COc1cc(C2c3cc4c(cc3C(OC3OC5COC(c6cccs6)OC5C(O)C3O)C3COC(=O)C23)OCO4)cc(OC)c1O` (stereo unspecified) was inactive: 1.16; that for `C[C@@H]1CN([C@H](C)CO)C(=O)c2cc(NC(=O)Nc3ccc(C(F)(F)F)cc3)ccc2O[C@@H](C)CCCCO[C@H]1CN(C)C(=O)C1CCCCC1` was inactive: 1.06; that for `CCCC#Cc1ccc2c(c1)O[C@H](CN(C)C(=O)c1cnccn1)[C@H](C)CN([C@H](C)CO)S2(=O)=O` was inactive: 1.03.
Consider `Cc1noc(C)c1S(=O)(=O)Nc1ccc2c(c1)CC(=O)N([C@@H](C)CO)C[C@H](C)[C@@H](CN(C)C(=O)Nc1ccccc1)O2`, for which the relative growth was inactive: 0.982.
For `COc1ccc(S(=O)(=O)N(C)C[C@@H]2OCCCC[C@@H](C)Oc3ccc(NC(=O)c4ccccc4)cc3C(=O)N([C@H](C)CO)C[C@@H]2C)cc1`, the relative growth is inactive: 1.02.
With `CC(C)(C)N1CC=C[C@@]23O[C@@H]4/C=C\CCCOC(=O)[C@@H]4[C@H]2C(=O)N(CCO)[C@@H]3C1=O`, the relative growth was inactive: 0.981.
The value for `Cn1cnc(S(=O)(=O)N[C@@H]2CC[C@@H](CC(=O)Nc3ccccc3)O[C@@H]2CO)c1` was inactive: 1.
